Data reported in PubChem BioAssay AID624171 (National Center for Advancing Translational Sciences (NCATS), 2012).
Among all 410,000 compounds or so, about 1,200 (0.29%) were called active. This list was built around the results that the source calls inconclusive (neither active nor inactive); the mix of calls is not that of the screen. Calls follow the shape of the dose curve; as a rule, active = well fitted activation curve with a large enough effect; inconclusive = small, poorly fitted or top-dose-only effect; inactive = flat fitted curve, though single readings scatter. A potency beside an inconclusive call is a rough fit, not a confirmed value.

Assay: qHTS of Nrf2 Activators; also: nearly all actives have a fitted effect of over 65% in size; as to activation: % of control where 0% means no effect
Conditions: AREc32 ARE-luciferase reporter (MCF7-derived line), luminescence, 24 h; activation: at 46.1 µM (top of the series)
Method in brief: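 AREc32 cells carrying an ARE-driven firefly luciferase, 1000 cells/well in OPTI-MEM with 5% FBS, dosed after overnight attachment and incubated 24 hr at 37 deg C. Steady-Glo luminescence read after 30 min at RT.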
Potency is read from the fitted curve at half-maximal effect; tags tell the direction and shape of the fitted curve.

Compound | activation | Potency
COc1ccc(NC(=O)Cn2nnc(-c3ccccc3NS(=O)(=O)c3ccccc3)n2)cc1 | inactive: -0.295% | 
Cc1ccc(Sc2ccc(NC(=O)CCl)cc2)cc1C |  | inconclusive: 31.6 µM [activator, single point]
Cc1c(C#N)c(NC(=O)CCl)n(Cc2ccccc2)c1C |  | inconclusive: 3.55 µM [activator, single point]
CCN1CCN(c2ccc(NC(=O)c3ccc([N+](=O)[O-])o3)cc2Cl)CC1 |  | inconclusive: 3.55 µM [activator, single point]
COc1ccc(N2CCN(C(=O)c3ccc(NS(=O)(=O)c4cccc(F)c4)cc3)CC2)cc1 | inactive: 0.52% | 
CCc1nc(-c2cc(S(=O)(=O)N3CCN(c4ccccc4OC)CC3)ccc2OC)no1 | inactive: 0.0334% | 
Cc1ccccc1-c1nnc2c3ccccc3c(C)nn12 |  | inconclusive: 14.1 µM [activator, partial curve, poor fit]
CCCN(C(=O)c1noc2c1COc1ccc(C)cc1-2)c1ccc(Cl)c(Cl)c1 | inactive: -0.881% | 
O=C(CCl)N1c2ccccc2Sc2ccc3ccccc3c21 |  | inconclusive: 28.2 µM [activator, single point]
O=C1NC(c2cccc(Br)c2)=N/C1=C\c1ccco1 |  | active: 8.91 µM
COC(=O)c1ccccc1NC(=O)c1c(NC(=O)c2ccco2)sc2c1CCC(C(C)(C)C)C2 (centres undefined) | inactive: -0.414% | 
Cc1cccc(-n2c(C)cc(C(=O)NC3CCCCC3)c2C)c1 |  | inconclusive: 20 µM [activator, single point]
Cc1cc(NC(=O)c2coc(=O)c(Br)c2)ccc1C(C)C |  | inconclusive: 22.4 µM [activator, single point]
N#C/C(=C\c1coc2ccc(O)cc2c1=O)C(=O)Nc1nc2ccccc2s1 |  | inconclusive: 10 µM [activator, partial curve, poor fit]
CCOC(=O)/C=C/c1ccc(C(F)(F)F)cc1S(=O)(=O)NC(C)(C)C |  | inconclusive: 28.2 µM [activator, single point]
Fc1c(F)c(F)c(N/N=C/c2c[nH]c3ccccc23)c(F)c1F |  | active: 12.6 µM
CC(=O)c1ccc(N2CCN(S(=O)(=O)c3ccc4c(c3)CC(C)N4C(C)=O)CC2)cc1 (centres undefined) | inactive: 4.11% | 
O=C(Nc1cccc(F)c1)c1ccco1 |  | active: 10 µM
Oc1ccc(Br)cc1/C=N/NC(=S)NCCc1ccccc1 | inactive: 0.471% | 
COCCN(C(=O)c1ccco1)c1nc(-c2ccccc2)cs1 |  | active: 10 µM
Cc1nc(S(=O)(=O)NC2CCCCC2)c(C#N)c(C)c1Cl |  | active: 12.6 µM
CCc1nnc(NC(=O)/C=C/c2ccco2)s1 |  | active: 4.47 µM
C=CCn1c(SC(F)F)nc2scc(-c3ccco3)c2c1=O |  | inconclusive: 1.78 µM [activator, partial curve, poor fit]
O=C/C(=C\Nc1ccccn1)c1nc2cc(Cl)ccc2o1 | inactive: 22.9% | 
CCN(CC(=O)Nc1sc2c(c1C#N)CCC(C)C2)Cc1nc2ccccc2c(=O)[nH]1 (centres undefined) | inactive: 2.75% | 

Compound | activation | Potency
COc1cc2c(C(F)(F)F)c(-c3ccsc3)oc(=O)c2cc1OC |  | inconclusive: 17.8 µM [activator, partial curve, poor fit]
COC(=O)C[C@H]1C[C@@H]2c3cc(NS(=O)(=O)c4ccc(OC)cc4)ccc3O[C@@H]2[C@H](CO)O1 | inactive: 0.16% | 
CCCc1nc2oc3c(NCCCN(C)C)ncnc3c2c2c1CCCC2 | inactive: 3.62% | 
O=C(CCS(=O)(=O)c1nc(-c2ccc3c(c2)OCO3)cc(C(F)(F)F)n1)Nc1ccccc1F |  | inconclusive: 17.8 µM [activator, single point]
O=C(Nc1ncc2c(n1)CC(c1ccco1)CC2=O)c1ccc(Cl)cc1 (centres undefined) |  | inconclusive: 5.01 µM [activator, partial curve]
Fc1ccc(-c2cn3ccccc3n2)cc1 |  | inconclusive: 20 µM [activator, single point]
O=C(CNC(=O)c1ccco1)Nc1cc(Cl)ccc1N1CCOCC1 | inactive: 1.68% | 
CSc1nc(-c2ccccc2)cc(C)c1C#N |  | inconclusive: 17.8 µM [activator, single point]
CC1Cc2ccccc2N1c1ncnc(N)c1[N+](=O)[O-] (centres undefined) | inactive: -2.01% | 
CC(=O)Nc1cccc(C(=O)/C=C/c2ccc(Br)cc2)c1 |  | inconclusive: 4.47 µM [activator, single point]
CN1CCN(C(=O)/C=C/c2ccc([N+](=O)[O-])o2)CC1 |  | inconclusive: 3.16 µM [activator, full curve, poor fit]
O=C(Nc1cccc(NC(=O)c2ccccc2Cl)c1)c1ccc([N+](=O)[O-])o1 |  | inconclusive: 3.55 µM [activator, single point]
c1ccc(-c2cc3ncccc3cn2)cc1 |  | inconclusive: 14.1 µM [activator, single point]
Cc1cccc(COc2ccc(-c3cc(C(F)(F)F)n4nc(C)cc4n3)cc2)c1 | inactive: -0.822% | 
CCOC(=O)C1=C(CN(CC)Cc2ccccc2)NC(=O)NC1c1ccc(Cl)cc1 (centres undefined) | inactive: -1.14% | 
COC(=O)C1=CN(c2ccc(OC)cc2)C=C(C(=O)OC)C1c1ccc(C)c([N+](=O)[O-])c1 | inactive: -0.59% | 
O=S1(=O)CCC(NC(=S)SCCOc2ccccc2)C1 (centres undefined) |  | inconclusive: 22.4 µM [activator, single point]
Clc1ccc(-c2noc(CSc3nnc(-c4ccncc4)n3-c3ccccc3)n2)cc1 | inactive: 3.31% | 
NC(=O)c1ccc(NC(=O)c2ccc(COc3ccc(F)cc3)o2)cc1 | inactive: -0.172% | 
O=C(Nc1cccc2ccccc12)N(CCO)C1CCS(=O)(=O)C1 (centres undefined) | inactive: 1.92% | 
CCN(CC)c1ccc(NC(=O)C2CCCN(S(=O)(=O)c3ccc4c(c3)oc(=O)n4C)C2)c(C)c1 (centres undefined) | inactive: -0.887% | 
O=C1SC(c2ccccc2)=N/C1=C/c1ccco1 |  | inconclusive: 12.6 µM [activator, single point]
Cc1ccnc(NC(=O)c2cnc(Cl)c(Cl)c2)c1 |  | inconclusive: 15.8 µM [activator, partial curve, poor fit]
Cc1ccc(C(c2c(C)n(C)n(-c3ccccc3)c2=O)c2c(C)n(C)n(-c3ccccc3)c2=O)s1 | inactive: -0.0063% | 
